Here are results for 89 molecules from publication PMC4336329 (PLoS ONE, 2015).

Molecules are shown by their SMILES. The whole screen tested about 310,000 compounds, of which about 2,200 (0.71%) showed an effect of 50% or more. The effect is printed as a negative number. The list shows a part of the results.

human ether-à-go-go-related gene (hERG) potassium channel, sequence (Q12809 whole entry, looked up): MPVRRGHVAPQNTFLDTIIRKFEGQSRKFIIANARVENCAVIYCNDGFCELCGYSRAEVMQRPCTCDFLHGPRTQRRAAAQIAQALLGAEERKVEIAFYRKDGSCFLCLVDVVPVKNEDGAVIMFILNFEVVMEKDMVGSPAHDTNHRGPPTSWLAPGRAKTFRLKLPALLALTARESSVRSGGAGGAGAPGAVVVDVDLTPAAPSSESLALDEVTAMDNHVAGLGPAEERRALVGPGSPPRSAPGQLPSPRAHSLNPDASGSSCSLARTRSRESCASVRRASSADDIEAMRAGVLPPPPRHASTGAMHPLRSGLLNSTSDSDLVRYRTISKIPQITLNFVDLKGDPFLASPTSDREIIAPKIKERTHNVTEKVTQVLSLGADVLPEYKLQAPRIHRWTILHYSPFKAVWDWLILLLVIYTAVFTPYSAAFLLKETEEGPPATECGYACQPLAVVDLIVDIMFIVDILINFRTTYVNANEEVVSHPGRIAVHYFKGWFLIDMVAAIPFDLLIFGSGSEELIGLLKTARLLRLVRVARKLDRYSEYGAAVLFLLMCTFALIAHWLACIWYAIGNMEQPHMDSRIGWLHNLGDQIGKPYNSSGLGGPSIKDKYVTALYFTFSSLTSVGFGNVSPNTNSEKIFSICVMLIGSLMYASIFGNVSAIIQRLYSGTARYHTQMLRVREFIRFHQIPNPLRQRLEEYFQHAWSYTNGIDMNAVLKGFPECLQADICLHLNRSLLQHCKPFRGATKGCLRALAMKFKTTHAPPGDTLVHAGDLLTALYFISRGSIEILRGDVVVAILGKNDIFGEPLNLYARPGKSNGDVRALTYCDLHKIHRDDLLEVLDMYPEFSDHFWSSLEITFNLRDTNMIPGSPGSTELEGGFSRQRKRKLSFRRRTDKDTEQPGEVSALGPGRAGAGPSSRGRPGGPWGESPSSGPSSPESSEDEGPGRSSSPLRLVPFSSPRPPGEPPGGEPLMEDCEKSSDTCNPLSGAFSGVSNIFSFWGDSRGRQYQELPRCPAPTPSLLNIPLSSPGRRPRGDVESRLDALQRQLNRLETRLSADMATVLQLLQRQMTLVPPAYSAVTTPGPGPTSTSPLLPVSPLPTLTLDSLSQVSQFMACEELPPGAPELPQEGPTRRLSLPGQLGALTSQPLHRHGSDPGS

The test has as its target human ether-à-go-go-related gene (hERG) potassium channel (human, UniProt Q12809). Briefly: primary screen, population patch clamp on CHO cells stably expressing hERG.
Take `O=C1CC(NS(=O)(=O)c2ccc([N+](=O)[O-])cc2)CN1c1ccc2c(c1)OCCO2` (centres unmarked): the “hERG current change (%, negative = inhibition) at 1uM” value stood at 7.66%. To `Fc1ccccc1NC(=S)NCCc1cccc(Cl)c1` belongs 10.3%; to `CCC/C(=N\NC(=O)C1CC1)c1ccccc1`, 2.55%. The same measure for `CCOC(=O)N1CCN(C(=O)Cc2cccc3ccccc23)CC1`: 7.05%; for `COc1ccc(-c2nnc3sc(C(C)N4C(=O)c5ccccc5C4=O)nn23)cc1` (centres unmarked): 5.52%. Regarding `CCS(=O)(=O)c1ccc(O)c(NC(=O)Nc2ccc(C(C)(C)C)cc2)c1`, the “hERG current change (%, negative = inhibition) at 1uM” value came to 16%. The same measure for `Cc1ccc(-c2nc3ccccc3[nH]2)cc1NC(=S)NC(=O)c1ccccc1Br`: 8.3%; for `CCOc1cc(NC(=S)NCc2ccco2)c(OCC)cc1NC(=O)CC(C)C`: 12.1%.

For `Cc1ccc(-c2cc(C(F)F)n3ncc(C(=O)N4CCc5ccccc54)c3n2)cc1`, the “hERG current change (%, negative = inhibition) at 1uM” value is given as 8.33%. To `CNS(=O)(=O)c1cccc(C(=O)Nc2cccc(Cl)c2)c1` belongs -2.9%; to `Cc1c(CCO)c(=O)n2c([nH]c3ccccc32)c1C#N`, 10.5%. In the case of `Nc1ccc(C(=O)C(=O)c2ccc(N)cc2)cc1`, the “hERG current change (%, negative = inhibition) at 1uM” value came to 12%.

Take `CCn1c(COc2ccc(OC)cc2)nc2ccccc21`: the “hERG current change (%, negative = inhibition) at 1uM” value is -12.1%. To `CS(=O)(=O)c1ccc(Cl)c(NC(=O)CCCc2nc3ccccc3c(=O)[nH]2)c1` belongs 9.83%.

As to `O=c1cc(O)c2ccccc2[nH]1`, the “hERG current change (%, negative = inhibition) at 1uM” value is reported as 14.8%. In the case of `O=C(Nc1ccccc1)C1=C[C@H](c2coc3ccccc3c2=O)C[C@H](OCCCCO)O1`, the “hERG current change (%, negative = inhibition) at 1uM” value is listed as -20%.

Take `COc1ccc(C(=O)N(Cc2ccco2)Cc2cc3cc(C)ccc3[nH]c2=O)cc1OC`: the “hERG current change (%, negative = inhibition) at 1uM” value came to 4.14%. The same measure for `COc1ccc(-c2ncncc2-c2ccccc2)c(O)c1`: 6.31%; for `COC(=O)c1cc(CNC(=O)c2ccc(N3CCCC3)c([N+](=O)[O-])c2)ccc1OC`: -6.96%. To `CC1CCCCN1c1cc(C#N)c(C#N)cc1[N+](=O)[O-]` (centres unmarked) belongs -2.62%; to `C=CCSc1nc2c(c(=N)n1CC=C)C1CCCC1S2` (centres unmarked), 7.28%. For `O=C(Nc1ccccc1N1CCCCC1)c1ccc(N2C(=O)c3ccccc3C2=O)cc1`, the “hERG current change (%, negative = inhibition) at 1uM” value amounted to 9.37%. As to `Cc1ccc2c(Cn3cc(C(F)(F)F)cc(Cl)c3=O)cc(=O)oc2c1`, the “hERG current change (%, negative = inhibition) at 1uM” value came to 8.32%. The same measure for `CC1CCc2c(sc(NC(=O)CN3CCN(C(=O)c4ccco4)CC3)c2C#N)C1` (centres unmarked): -4.17%. To `N#CC(C#N)=C(N)/C(C#N)=C\c1ccc(O)cc1` belongs 11.6%; to `O=C(Nc1ccc2oc(=O)ccc2c1)c1cccnc1`, 1.01%; to `O=[N+]([O-])c1ccc(OCC(O)CNCCNc2nccc(C(F)(F)F)n2)cc1` (centres unmarked), -77.9%. To `Cc1nc2c(ncn2-c2ccccc2)c(=O)n1NC(=O)CN1CCN(C)CC1` belongs 14%; to `O=C1c2ccccc2C(=O)N1Cc1nc2ccccc2c(=O)n1CCN1CCOCC1`, 8.13%. As to `CSCCC(NC(N)=O)C(=O)NCc1ccccc1Cl` (centres unmarked), the “hERG current change (%, negative = inhibition) at 1uM” value is reported as 6.75%. The same measure for `O=C(Cc1ccc(NC2=NC3CS(=O)(=O)CC3S2)cc1)NCc1ccccc1` (centres unmarked): 15.2%; for `O=C(CN1C(=O)NC2(CCCCCCC2)C1=O)NC(=O)NCc1ccco1`: 6.48%.

As for `CCOc1ccc(CC(=O)Nc2sc(Cc3ccccc3)cc2C(N)=O)cc1OCC`, the “hERG current change (%, negative = inhibition) at 1uM” value was 7.95%.

For `COC(=O)C1CCN(C(=O)C(C)Oc2ccc(Cl)cc2Cl)CC1` (centres unmarked), the “hERG current change (%, negative = inhibition) at 1uM” value was determined as 15.7%. The same measure for `COc1ccc(CCc2nnc(CCC(=O)N(C)Cc3ccnc4ccccc34)o2)cc1`: -2.44%; for `CC(C)c1ccc(NC(=O)C(c2ccccc2)N(C)C(=O)c2cnccn2)cc1` (centres unmarked): 6.31%; for `O=C(NC1CCC(O)CC1)c1ccc(S(=O)(=O)NCc2ccco2)cc1` (centres unmarked): 21.3%. To `Cc1cc(Cl)ccc1NC(=O)Nc1c(C)n(-c2ccccc2)c(=O)n1C` belongs -12.1%; to `Cc1cccc(N=C2CSC(=O)N2)c1`, 12%; to `COc1cccc(/C=N/NC(=S)Nc2cccnc2)c1`, 10.7%.

In the case of `CCOC(=O)c1c(C)[nH]c(C)c1C(=O)CSc1nc(N)cc(N)n1`, the “hERG current change (%, negative = inhibition) at 1uM” value is listed as 14.3%. For the molecule `COc1ccc(S(=O)(=O)C(C#N)c2nc3ccccc3nc2N2CCCCC2)cc1` (centres unmarked), the “hERG current change (%, negative = inhibition) at 1uM” value is -0.113%. The same measure for `CC(=O)/C(=C/N(C)C)C(=O)Nc1ccc(Cl)cc1Cl`: 13%; for `COc1ccc(OCCCn2cc(/C=C3/C(=N)N4C=C(C)SC4=NC3=O)c3ccccc32)cc1`: 12.4%; for `COc1ccccc1C(=O)OCC(=O)NC(=O)NCc1ccccc1`: -3.81%. Take `CCOC(=O)N1CCN(CC(O)COc2ccc(OC)cc2C(C)(C)C)CC1.Cl` (centres unmarked): the “hERG current change (%, negative = inhibition) at 1uM” value came out at 2.16%. In the case of `CCOc1ccc(S(=O)(=O)NCc2ccco2)cc1`, the “hERG current change (%, negative = inhibition) at 1uM” value amounted to 9.49%. To `CN(Cc1ccc(F)cc1)C(=O)c1cc(COc2ccc(F)cc2F)on1` belongs 9.63%; to `O=C(N/N=C/C=C/c1ccco1)c1ccccc1Cl`, -6.98%. To `COc1ccc(C2=CSC3=NCCN23)cc1Cl` belongs 6.27%; to `O=C(COc1ccc(Cl)cc1)NCc1nnc(SCC(=O)Nc2ccccc2)o1`, 1.01%. The same measure for `Cc1c(Cl)c(-c2n[nH]c(=S)n2Cc2ccco2)nn1C`: 9.86%. Take `CC1=NOC(=O)/C1=C\c1ccc2c(c1)OCO2`: the “hERG current change (%, negative = inhibition) at 1uM” value is 18.6%. Regarding `Cc1cccn2c(=O)c3cc(C(=O)N4CCOCC4)n(C)c3nc12`, the “hERG current change (%, negative = inhibition) at 1uM” value was found to be 2.56%. The same measure for `CC1CN(C(c2ccco2)c2sc3ncnn3c2O)CC(C)O1` (centres unmarked): 0.268%. For `Cn1c(SCc2nc3ccccc3[nH]2)nnc1-c1cnccn1`, the “hERG current change (%, negative = inhibition) at 1uM” value was 17.1%. The same measure for `O=C(COC(=O)c1ccc(F)c(S(=O)(=O)N2CCOCC2)c1)NCCc1ccccc1`: 11.3%.

For `COc1ccc2sc(N(CCCN(C)C)C(=O)c3nc4ccccc4s3)nc2c1.Cl`, the “hERG current change (%, negative = inhibition) at 1uM” value stood at 11.5%.

Turning to `Cc1nc(N2CCN(C(=O)c3ccco3)CC2)nc2c1C(=O)CC(C)C2` (centres unmarked), the “hERG current change (%, negative = inhibition) at 1uM” value is given as 10.1%. To `COc1ccc(S(=O)(=O)NCc2csc(C)n2)cc1OC` belongs 11.4%; to `COCC(C)n1c(C)cc(C(=O)COC(=O)CNC(=O)c2ccccc2)c1C` (centres unmarked), 14.4%. The same measure for `CN(C(=O)n1cnc2ccccc21)c1ccccc1`: 6.18%; for `O=C(Cc1ccccc1)N/N=C/c1ccc(OCC(=O)Nc2ccccc2)cc1`: 9.76%.

On to `Cc1cc(C(=O)N2CCCC(N3CCN(c4cccc(Cl)c4)CC3)C2)n(C)n1` (centres unmarked), for which the “hERG current change (%, negative = inhibition) at 1uM” value is given as -1.81%.

With `COc1cc(/C=C2\C(=O)NC(=O)N(c3ccccc3)C2=O)cc(OC)c1OC`, the “hERG current change (%, negative = inhibition) at 1uM” value is 7.02%. To `COCCNC(=O)CCc1ccc(S(=O)(=O)Nc2ccc(C)cc2)cc1` belongs -6.4%; to `COc1cccc(-c2nc(CC(=O)O)cs2)c1OC`, 18.3%; to `O=C(O)C1C2C=CC(O2)C1C(=O)NCc1ccccc1Br` (centres unmarked), 13.9%. Take `COC(=O)c1ccc(CNC(=O)COC(=O)CCN2C(=O)C3CC=CCC3C2=O)cc1` (centres unmarked): the “hERG current change (%, negative = inhibition) at 1uM” value is reported as 6.86%. To `COc1ccc(Cl)c2c1[nH]c1nc(SCc3cccnc3)nnc12` belongs 11.4%; to `CCCCn1c(=O)[nH]c(=O)c2c1nc(-c1ccc(OCC)cc1)n2CC`, 14.9%; to `CCCCc1cc(=O)oc2cc(OCC(=O)NCc3ccccn3)ccc12`, -2.44%. On to `COc1cc(C2C(C(=O)c3ccco3)=C(O)C(=O)N2c2cc(C)on2)cc(Br)c1O` (centres unmarked), for which the “hERG current change (%, negative = inhibition) at 1uM” value is listed as 9.94%.

On to `Cc1cc(OCc2ccc(F)cc2)nc(-c2ccccc2O)n1`, for which the “hERG current change (%, negative = inhibition) at 1uM” value stood at 11.2%. The same measure for `COc1cccc(-c2ccc(NC(=O)C3CCCN(Cc4cnn(C(C)C)c4)C3)cc2)c1` (centres unmarked): -1.47%; for `Nc1ncc(CCN2CCOCC2)c(-c2ccc(F)cc2)n1`: 0.746%; for `COC(=O)c1cc(-c2cccc(OC)c2)on1`: 8.44%. The same measure for `CCCc1cc(=O)[nH]c(SCc2cc(=O)oc3cc(C)c(C(C)C)cc23)n1`: 19.6%; for `C[C@@]12CCC=C[C@H]1[C@H](c1ccc3ccccc3c1)N(Cc1ccccc1)C2=O`: 9.47%; for `CCn1nc(C(=O)OCC(=O)N2c3ccccc3CC2C)c2ccccc2c1=O` (centres unmarked): 2.82%. The same measure for `CCOC(=O)C(=CNc1cccnc1Oc1ccc(C)c2c1CCC2)C(=O)OCC`: -0.256%; for `COc1ccc(S(=O)(=O)N2CCN(c3ncccn3)CC2)cc1OC`: 6.04%; for `CCOc1ccc(NC(=S)NC(=O)C2CCCC2)cc1`: 14.5%.

In the case of `Cc1ccc(C(=O)C2=C(O)C(=O)N(CCCN(C)C)C23C(=O)N(C)c2ccccc23)o1` (centres unmarked), the “hERG current change (%, negative = inhibition) at 1uM” value is listed as 10.8%.

As for `COc1ccc(OCC(=O)N(Cc2cccs2)C2CCS(=O)(=O)C2)cc1` (centres unmarked), the “hERG current change (%, negative = inhibition) at 1uM” value worked out at 13.7%. `Cc1ccc(S(=O)(=O)NCCC(=O)Nc2nccs2)cc1`: the “hERG current change (%, negative = inhibition) at 1uM” value stood at 9.38%. To `COC(=O)c1ccc(COc2ccccc2/C=C(\C#N)C(=O)Nc2ccc(C)cc2)cc1` belongs 9.46%; to `Cc1cc(C(=O)NC2CCCc3c2cnn3-c2ccc(C)c(C)c2)n(C)n1` (centres unmarked), 12.3%; to `Cn1c2ccccc2c2nn(-c3ccccc3)c(=O)cc21`, 0.761%.
